The source of these data is PMC4336329 (PLoS ONE, 2015).

Among all 310,000 compounds or so, about 14,000 (4.5%) showed an effect of 50% or more. Effects have a minus sign here. This is one part of the list.
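Also: peak tail current of the secondary pulse compared with the same well before compound.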

In this experiment the target is human ether-à-go-go-related gene (hERG) potassium channel (human, UniProt Q12809). Nature of the experiment: primary screen, population patch clamp on CHO cells stably expressing hERG.
Sequence of human ether-à-go-go-related gene (hERG) potassium channel (Q12809 whole entry, looked up): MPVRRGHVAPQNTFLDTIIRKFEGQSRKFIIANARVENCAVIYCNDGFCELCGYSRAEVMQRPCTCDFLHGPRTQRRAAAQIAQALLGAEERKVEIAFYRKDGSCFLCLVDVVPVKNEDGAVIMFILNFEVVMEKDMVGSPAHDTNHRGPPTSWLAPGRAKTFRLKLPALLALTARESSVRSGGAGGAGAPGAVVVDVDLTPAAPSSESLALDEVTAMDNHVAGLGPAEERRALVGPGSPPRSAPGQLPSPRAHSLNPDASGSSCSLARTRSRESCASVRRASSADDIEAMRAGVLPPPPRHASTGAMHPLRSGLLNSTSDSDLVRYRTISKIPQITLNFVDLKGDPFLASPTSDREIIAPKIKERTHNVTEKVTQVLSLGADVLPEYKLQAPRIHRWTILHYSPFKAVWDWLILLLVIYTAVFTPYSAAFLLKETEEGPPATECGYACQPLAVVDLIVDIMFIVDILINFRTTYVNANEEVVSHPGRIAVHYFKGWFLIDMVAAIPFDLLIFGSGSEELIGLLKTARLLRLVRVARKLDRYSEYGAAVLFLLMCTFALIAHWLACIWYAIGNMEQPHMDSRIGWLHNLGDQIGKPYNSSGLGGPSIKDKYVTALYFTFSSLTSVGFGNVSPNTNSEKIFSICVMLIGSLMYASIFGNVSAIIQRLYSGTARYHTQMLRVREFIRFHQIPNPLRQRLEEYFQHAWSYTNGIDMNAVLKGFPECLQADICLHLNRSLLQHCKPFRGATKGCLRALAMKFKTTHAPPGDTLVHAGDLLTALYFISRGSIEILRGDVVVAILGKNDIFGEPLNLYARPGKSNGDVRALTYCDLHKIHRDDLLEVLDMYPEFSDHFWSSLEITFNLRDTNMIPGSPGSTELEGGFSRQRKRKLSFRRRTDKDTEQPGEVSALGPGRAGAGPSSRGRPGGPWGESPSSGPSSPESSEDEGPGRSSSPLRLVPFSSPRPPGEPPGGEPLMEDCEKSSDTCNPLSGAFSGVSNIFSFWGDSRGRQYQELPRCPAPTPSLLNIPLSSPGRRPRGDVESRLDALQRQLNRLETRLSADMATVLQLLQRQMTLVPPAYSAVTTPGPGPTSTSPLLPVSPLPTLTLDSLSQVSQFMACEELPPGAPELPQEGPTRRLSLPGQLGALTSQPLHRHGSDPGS
In the case of `CC(=O)c1ccc(NC(=O)CCNS(=O)(=O)c2cccc3nonc23)cc1`, the “hERG current change (%, negative = inhibition) at 10uM” value is recorded as 19.8%.

For the compound `O=C(NCc1ccncc1)c1ccc(Oc2ccccc2)cc1`, the “hERG current change (%, negative = inhibition) at 10uM” value is -15.9%.

In the case of `Cc1cccc(N(Cc2cc3cc(C)ccc3[nH]c2=O)C(=O)c2cccs2)c1`, the “hERG current change (%, negative = inhibition) at 10uM” value is reported as 5.95%.

For `Cc1cc2cccc(C)c2nc1SCC(=O)NNC(=O)c1ccco1`, the “hERG current change (%, negative = inhibition) at 10uM” value is given as 3.66%.

On to `C#CCOC(=O)c1ccccc1C(=O)O`, for which the “hERG current change (%, negative = inhibition) at 10uM” value turned out to be 7.07%.

As for `CC(C)(C)N1CC(OC(N)=O)C1`, the “hERG current change (%, negative = inhibition) at 10uM” value is recorded as 21%.

On to `O=C(c1cccc(N2C(=O)c3ccccc3C2=O)c1)N1CCCCCC1`, for which the “hERG current change (%, negative = inhibition) at 10uM” value came out at 2.21%.

Take `Cc1ccc(-c2nnn(CC(=O)N(Cc3cccs3)C(C(=O)NC3CCCC3)c3ccco3)n2)o1` (stereo not shown): the “hERG current change (%, negative = inhibition) at 10uM” value is -12%.

Consider `CCn1cnc2sc(C(=O)N(Cc3ccc(N(C)C)cc3)Cc3ccco3)c(C)c2c1=O`, for which the “hERG current change (%, negative = inhibition) at 10uM” value is on record as -22.2%.

As for `NC1=NC(=O)C(CC(=O)c2ccc(Cl)cc2)S1` (stereo not shown), the “hERG current change (%, negative = inhibition) at 10uM” value came to 1.23%.

`CCOC(=O)C1=C(C)N=c2s/c(=C3/C(=O)Nc4ccccc43)c(=O)n2C1c1ccc(C)cc1` (stereo not shown): the “hERG current change (%, negative = inhibition) at 10uM” value came to 14.7%.

Regarding `COc1ccc(C2CC(c3ccccc3)=NN2C(=O)COC(=O)CNC(=O)c2ccccc2)cc1` (stereo not shown), the “hERG current change (%, negative = inhibition) at 10uM” value is -26.3%.

With `N/C(=N\OC(=O)CC1CCCCC1)c1ccncc1`, the “hERG current change (%, negative = inhibition) at 10uM” value came to 2.62%.

Regarding `O=C1NC(=S)S/C1=C/c1ccc(Oc2cnccn2)cc1`, the “hERG current change (%, negative = inhibition) at 10uM” value is reported as 20%.

For `NS(=O)(=O)c1ccc(CCNC2CC(=O)N(Cc3ccccc3)C2=O)cc1` (stereo not shown), the “hERG current change (%, negative = inhibition) at 10uM” value was -17.3%.

On to `O=C(COc1ccc(Cl)cc1Cl)Nc1ccccc1F`, for which the “hERG current change (%, negative = inhibition) at 10uM” value is listed as 9.98%.

As to `CCOc1ccc(Oc2nc(NCC(C)C)nc(N(C)C)n2)nn1`, the “hERG current change (%, negative = inhibition) at 10uM” value is 4.63%.

As to `O=C(NCC(=O)N(c1cccc(F)c1)C(C(=O)NCC1CCCO1)c1ccccc1)c1ccco1` (stereo not shown), the “hERG current change (%, negative = inhibition) at 10uM” value was determined as 6.26%.

In the case of `COc1ccc(N2CCN(C(=O)CSc3nnc(-c4cc5ccccc5cc4O)n3C)CC2)cc1`, the “hERG current change (%, negative = inhibition) at 10uM” value is -12.4%.

In the case of `O=C(NNC(=O)C1CC(c2cccnc2)=NO1)Nc1ccccc1F` (stereo not shown), the “hERG current change (%, negative = inhibition) at 10uM” value is -0.452%.

Turning to `CCN(Cc1ccc2c(c1)OCO2)C(=O)CSc1nc(C)nc2sc(C)c(C)c12`, the “hERG current change (%, negative = inhibition) at 10uM” value is on record as -5.76%.

Regarding `CN(C)/C=C1\C(=O)ON=C1c1ccccc1`, the “hERG current change (%, negative = inhibition) at 10uM” value was 7.29%.

On to `O=C(Nc1ncccc1O)c1ccc(Cl)c(S(=O)(=O)N2CCCCCC2)c1`, for which the “hERG current change (%, negative = inhibition) at 10uM” value is -61%.

`COc1ccc(OC)c(N/C(N)=N/c2nc(C)cc(C)n2)c1`: the “hERG current change (%, negative = inhibition) at 10uM” value is listed as -50.1%.

With `O=C(CSc1nc(-c2cccs2)nc2ccccc12)NC1CCS(=O)(=O)C1` (stereo not shown), the “hERG current change (%, negative = inhibition) at 10uM” value worked out at 6.45%.

As for `Cc1cc(NC(=O)Nc2cccs2)no1`, the “hERG current change (%, negative = inhibition) at 10uM” value was determined as 20.7%.

On to `CC(=O)Nc1cc2nc(C)n(Cc3ccc([N+](=O)[O-])cc3)c2nc1C`, for which the “hERG current change (%, negative = inhibition) at 10uM” value stood at 5.48%.

`CCCn1c(C(C)Nc2nc(-c3cc(Cl)c(N)c(Cl)c3)cs2)nc2cc(Cl)c(N3CCCCC3)cc21` (stereo not shown): the “hERG current change (%, negative = inhibition) at 10uM” value was -0.0189%.

For the compound `Cc1ccc(S(=O)(=O)c2nc(-c3ccccc3)oc2NCCN2CCOCC2)cc1`, the “hERG current change (%, negative = inhibition) at 10uM” value came to 3.12%.

In the case of `Cc1nnc(SCc2cccc(Oc3ccccc3)c2)n1N`, the “hERG current change (%, negative = inhibition) at 10uM” value is listed as -10.5%.

Regarding `O=C(NNc1c(Cl)cc(Cl)cc1Cl)c1n[nH]c(=O)c2ccccc12`, the “hERG current change (%, negative = inhibition) at 10uM” value came to 0.99%.

Consider `O=C(NNC(=O)c1cc(-c2ccccc2)nc2ccccc12)c1csc(N2CCOCC2)n1`, for which the “hERG current change (%, negative = inhibition) at 10uM” value is recorded as 0.815%.

As for `CCOc1ccc(C2N(c3cc(C)on3)C(=O)C3CCCN32)cc1OC` (stereo not shown), the “hERG current change (%, negative = inhibition) at 10uM” value worked out at 12.5%.

Take `O=C1C(=O)N(c2ccccn2)C(c2ccc(F)cc2)/C1=C(/O)c1ccc(Br)cc1` (stereo not shown): the “hERG current change (%, negative = inhibition) at 10uM” value was determined as 2.03%.

Regarding `COc1cccc(NC(=O)CN(C)S(=O)(=O)c2ccc(C)cc2)c1`, the “hERG current change (%, negative = inhibition) at 10uM” value is -7.36%.

As for `CCc1noc(C)c1C(=O)Nc1ccccc1N1CCOCC1`, the “hERG current change (%, negative = inhibition) at 10uM” value is -14.9%.

Regarding `COc1ccc(NC(=O)CCS(=O)(=O)c2ccc3c(c2)CCCN3C(C)=O)cc1Cl`, the “hERG current change (%, negative = inhibition) at 10uM” value is -7.51%.

With `CCN(CC)CC#Cc1ccc(C)cc1.Cl`, the “hERG current change (%, negative = inhibition) at 10uM” value is given as 7.47%.

Regarding `Cc1ccc(S(=O)(=O)N2CCOCC2)cc1C(=O)NCC1CCCO1` (stereo not shown), the “hERG current change (%, negative = inhibition) at 10uM” value worked out at 5.88%.

Turning to `COc1ccc(OCc2cc(C(=O)N3CCCC3)no2)c2ccccc12`, the “hERG current change (%, negative = inhibition) at 10uM” value is reported as -27.9%.

In the case of `CN1CCN(NC(=O)c2cc(-c3ccccn3)nc3ccccc23)CC1`, the “hERG current change (%, negative = inhibition) at 10uM” value was found to be 14%.

Turning to `CSCc1ccc(C(=O)NCC(c2cccs2)N2CCOCC2)cc1` (stereo not shown), the “hERG current change (%, negative = inhibition) at 10uM” value is -3.08%.

With `COc1ccc(CC(=O)NCc2ccc3c(c2)cc(C)n3C)cc1`, the “hERG current change (%, negative = inhibition) at 10uM” value came to 18.6%.
